Screen size: about 150,000 compounds; about 540 (0.36%) showed an effect of 50% or more. This is one part of the list.
system: Plasmodium falciparum; assay: Primary screen in NF54 nanoGlo assay, in single point, at 2uM, 72h; a lower Z score goes with more inhibition; type: functional, Erythrocyte; settings: timepoint 72 hour

SMILES	% Inhibition [%]	Z score
CCCS(=O)(=O)NCc1cncc(-c2ccsc2)c1	-13	2.01
Cc1cc(C(=O)N2CCC(NC(=O)c3ccncc3)CC2)c(C)o1	-7	1.09
O=C(Nc1cccc2ncccc12)c1ccc(-n2cccn2)nc1	6	-0.71
Cc1ccc(-c2cc(C(=O)NCc3cccnc3)c(C)o2)cc1	5	-0.54
O=C(CN1CCCN(C(=O)c2cc(Cl)c(Cl)[nH]2)CC1)N1CCCC1	-6	0.8
O=C1[C@H]2CN(Cc3cc(F)cc(F)c3)C[C@H]2C(=O)N1Cc1ccc2c(c1)OCO2	-5	0.62
CN(c1ccccc1)c1nnc(-c2ccc(NC(=O)c3ccco3)cc2)s1	-8	1.1
O=S1(=O)CCCC(NS(=O)(=O)[C@H]2C[C@@H]2c2ccccc2)C1 (stereo not given in full)	0	0
Cc1cnn(CC(=O)NC2(c3noc([C@H]4CCOC4)n3)CCCCCC2)c1	-4	0.74
CC(C)c1nnc(N2CCC3(CCC(=O)N(CCN(C)C)C3)CC2)s1	0	-0.06
CCOC1CC(NC(=O)NCCN(C)C2CC2)C12CCC2 (stereo not given)	0	0.06
O=C1C[C@]2(C(=O)Nc3ccc(F)cc32)c2cnn(Cc3ccc(Cl)cc3)c2N1	33	-3.76
COc1ccnc(CNC(=O)NCc2ccc(S(C)(=O)=O)s2)c1F	14	-1.75
CC(C)=CCN=C(N)N1CCC[C@H](C)C1	-9	1.18
C[C@@H](C(=O)N1CCn2cnnc2C1)N(C(=O)OC(C)(C)C)C1CC1	5	-0.6
Cc1nc(N2CCC(c3ncc[nH]3)CC2)c2ccsc2n1	-9	1.45
CCC(C)C(=O)NCC(=O)NC1C(C)CCCC1C (stereo not given)	10	-1.49
CC(C)N1CCN(C[C@]2(O)CCCN(CC3CCCCC3)C2=O)CC1	0	-0.03
C[C@@H](c1nnc(-c2cccs2)o1)N(C)CCOc1ccc(O)cc1	-11	1.42
CC[C@H](C)N(C/C=C/c1ccccc1)Cc1cnc(C)cn1	-13	1.42
CC[C@H](C)Oc1ccccc1CN1CCn2nc(C#N)cc2C1	-9	0.88
CCOC(=O)C1(NCC(=O)NC(=O)NC(C)(C)C)CCCCC1	-10	1.16
CCc1ccc(CN2CCN(C(=O)c3coc(-c4ccccc4)n3)CC2)s1	-4	0.63
COc1cccc(CN2C(=O)c3cc(C4CC4)nn3C[C@@]2(C)C(=O)NC2CCCCCC2)c1OC	0	-0.06
CCc1cnc(N)nc1N[C@@H](CO)Cc1ccccc1	-13	1.99
CCOc1ccc(NC(=O)c2cc3c(s2)CCC3)cc1S(=O)(=O)N1CCCCC1	-12	2.03
COc1ccc(CN2CCCn3cccc3[C@H]2c2ccc(C)c(C)c2)cc1	-11	1.33
CC(C)C1OCCC1c1nc(-c2cccs2)no1 (stereo not given)	8	-1.1

SMILES	% Inhibition [%]	Z score
CCNS(=O)(=O)CCNC(=O)[C@H](C)c1ccc(Cl)s1	-3	0.22
O=C(CCn1cnnc1)N1CCC2(CC1)c1ccccc1C[C@@H]2O	17	-2.19
Cn1c2c(c(=O)n(C)c1=O)C(=O)C(=O)N(Cc1ccccc1)C2=O	-6	0.63
Cc1cc(C(=O)N2CC[C@H](CO)C2)ns1	-13	1.78
CCNC(=O)N1CCN(c2nc(C)nc(C)c2Cc2ccccc2F)CC1	-7	0.91
C=CCNC(=O)CN1CCCN(CC(=O)NCC=C)c2ccccc21	2	-0.16
Cc1nc2cc(NC(=O)c3ccccc3-c3ccccc3)ccc2o1	-11	1.45
COC(=O)C1(NC(=O)OC(C)(C)C)CC(CN2CCN(C)CC2)C1 (stereo not given)	10	-2.05
CNS(=O)(=O)C1CCN(C(=O)C(C)Cc2ccc(Cl)cc2)C1 (stereo not given)	-4	0.66
COc1ccc(C(=O)N2CC[C@H](N(CCN3CCOCC3)S(C)(=O)=O)C2)c(C)c1	-8	1.15
O=C(CC(F)(F)F)N1CC[C@H](Oc2cnc3ccccc3n2)C1	1	-0.11
CN(CC1(CO)CCC1)c1ccc(C(N)=O)cn1	0	0.05
O=C(N[C@H]1CCN(c2cccc(OC(F)(F)F)c2)C1)C1(O)CCCC1	-13	1.73
COCCCN(C)S(=O)(=O)c1c(Cl)cccc1C(F)(F)F	2	-0.17
Cc1cnn(CCNCc2ccco2)c1	-12	1.21
O=C(NC1CC1C1CCCCC1)N1CCCN(C2CCOCC2)CC1 (stereo not given)	-16	1.42
CN=C(NCCC1=CCCCC1)NCc1nnc2n1CCCCC2	0	-0.06
COC(=O)CC(C)(C)CC(=O)N(C)c1cnc2ccccc2c1	-1	0.08
COc1cccc(Cc2nc(-c3ccc(NS(=O)(=O)c4ccc(C)cc4)cc3)no2)c1	0	0.03
CC(C(=O)Nc1nc(C2CC2)cs1)C(N)c1ccccc1 (stereo not given)	3	-0.41
COCc1nc([C@@H]2CCCCCN2C(=O)Cc2cccc(OC)c2)no1	-2	0.25
Cc1cnc(Cn2cnc3c(nnn3C)c2=O)s1	-5	0.68
CC(C)(C)NC(=O)CN1CC(C)(C)[C@@](C)(O)C1	-9	1.36
Cc1sc2c(c1C)C(=O)N[C@@H](c1ccncc1)N2	-15	2.24
Cc1ncsc1CN(C)C(C)C(=O)NCC1CCCO1 (stereo not given)	15	-2.78
Cc1c(Br)cccc1S(=O)(=O)N1CCn2ccnc2C1	-6	0.77
CCC(=O)N(CCOC)Cc1c(-c2cccc(C)c2)noc1N1CCCC1	-2	0.37
